According to publication PMC4336329 (PLoS ONE, 2015):
Screen size: about 310,000 compounds; about 2,200 (0.71%) showed an effect of 50% or more. Effects have a minus sign here. The list shows a part of the results.

The molecules below were run against human ether-à-go-go-related gene (hERG) potassium channel (human, UniProt Q12809) (assay: primary screen, population patch clamp on CHO cells stably expressing hERG).
human ether-à-go-go-related gene (hERG) potassium channel, sequence (Q12809 whole entry, looked up): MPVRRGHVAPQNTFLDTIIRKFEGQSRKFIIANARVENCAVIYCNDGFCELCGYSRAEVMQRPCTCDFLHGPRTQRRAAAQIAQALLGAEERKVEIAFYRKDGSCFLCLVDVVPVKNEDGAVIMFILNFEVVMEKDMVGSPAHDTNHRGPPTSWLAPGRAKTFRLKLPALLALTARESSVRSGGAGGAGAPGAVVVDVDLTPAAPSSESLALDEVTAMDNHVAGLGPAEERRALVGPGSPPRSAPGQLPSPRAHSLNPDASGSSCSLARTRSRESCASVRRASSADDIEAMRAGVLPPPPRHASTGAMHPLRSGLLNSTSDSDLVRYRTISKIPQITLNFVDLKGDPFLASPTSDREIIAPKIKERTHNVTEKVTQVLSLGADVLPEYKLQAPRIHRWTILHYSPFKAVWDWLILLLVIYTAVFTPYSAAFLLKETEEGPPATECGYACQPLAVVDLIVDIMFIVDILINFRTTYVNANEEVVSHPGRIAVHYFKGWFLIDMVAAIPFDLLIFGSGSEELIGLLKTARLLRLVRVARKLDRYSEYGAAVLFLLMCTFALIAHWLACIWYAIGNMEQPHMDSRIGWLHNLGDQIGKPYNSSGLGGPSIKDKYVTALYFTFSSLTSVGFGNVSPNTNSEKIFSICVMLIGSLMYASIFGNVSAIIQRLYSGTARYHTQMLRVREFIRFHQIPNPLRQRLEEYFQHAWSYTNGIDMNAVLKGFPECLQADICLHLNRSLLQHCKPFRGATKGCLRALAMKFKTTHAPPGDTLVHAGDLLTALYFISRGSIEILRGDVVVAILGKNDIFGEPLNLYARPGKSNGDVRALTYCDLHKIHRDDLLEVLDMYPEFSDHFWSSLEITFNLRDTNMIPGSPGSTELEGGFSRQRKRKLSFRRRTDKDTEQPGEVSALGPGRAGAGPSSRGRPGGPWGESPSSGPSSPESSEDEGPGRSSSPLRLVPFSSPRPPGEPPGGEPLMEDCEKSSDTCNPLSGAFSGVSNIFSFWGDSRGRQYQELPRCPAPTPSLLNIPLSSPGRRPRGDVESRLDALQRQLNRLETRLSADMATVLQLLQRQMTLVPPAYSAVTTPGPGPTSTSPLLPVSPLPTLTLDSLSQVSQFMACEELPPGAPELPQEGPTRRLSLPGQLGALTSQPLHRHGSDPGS

SMILES | hERG current change (%, negative = inhibition) at 1uM [%]
COc1ccc(C(=O)NCc2ccc3c(c2)cc(C)n3C)cc1 | 6.47
CC(=O)c1ccc(S(=O)(=O)Nc2cccc(-n3cnnn3)c2)cc1 | 14
CCOC(=O)c1[nH]c2ccccc2c1NC(=O)Nc1ccc(OC)cc1 | 0.729
O=C(Cn1cnc2ccccc2c1=O)NCc1cccs1 | 11.4
Cc1ccc(-c2c(C(=O)N/N=C/c3cccc(Cl)c3)nnn2-c2nonc2N)cc1 | 14.7
C=CCn1c(SCC(=O)Nc2cc(C)ccc2C)nnc1-c1cnccn1 | 0.11
CCOC(=O)CSCC(=O)Nc1ccc(S(=O)(=O)N2CCCCC2)cc1 | 15.1
O=C(NCc1ccco1)C(Cc1ccccc1)N1C(=O)C2C3C=CC(C3)C2C1=O (stereo not drawn) | 3.13
O=C(CSc1nncn1-c1ccccc1)Nc1cccc(S(=O)(=O)N2CCCCC2)c1 | 19.8
CCc1nnc(NC(=O)CN2C(=O)c3ccccc3S2(=O)=O)s1 | 10.6
COCCn1c(SCC(=O)NC2CCCC2)nc2cccnc21 | 6.19
O=C(/C=C/c1cccs1)Nc1nccs1 | 11.2
CN(c1ccccc1)S(=O)(=O)c1ccc(NC(=O)c2nc(S(C)(=O)=O)ncc2Cl)cc1 | 16
CN1CCc2c(sc3c2c(NCc2ccco2)nc2nnnn23)C1 | -72.8
Cc1ccc(S(=O)(=O)NCCOCCNS(=O)(=O)c2ccc(C)cc2)cc1 | -2.18
Cc1ccc(OCC(=O)Nc2cccc3nsnc23)c(C)c1 | 12.7
CCN1CCN(c2nc3c(C)cccn3c(=O)c2/C=C(\C#N)S(=O)(=O)c2ccccc2)CC1 | 7.48
CC(=O)Nc1cccc(N)c1 | 8.08
Cc1cccc(CC(=O)Nc2ccc(C(=O)N3CCCCC3)cc2)c1 | 19
CC(C)C(NC(=O)c1ccccc1)C(=O)NCc1ccccn1 (stereo not drawn) | 11.7
COc1ccccc1/C=C(\C)C(=O)c1c(C)cc(C)[nH]c1=O | 9.79
Cc1nc(OCc2ccccc2)c2ccccc2n1 | 7.6
O=C(Cc1ccc(F)cc1)Nc1cccc(S(=O)(=O)N2CCCC2)c1 | -4.72

SMILES | hERG current change (%, negative = inhibition) at 1uM [%]
COc1ccc(-c2noc(CSc3nnc(-c4ccccc4)n3C)n2)cc1 | -4.91
O=[N+]([O-])c1ccccc1CCc1cnc(Cl)s1 | 15.8
O=C(NCCN1CCN(C(=O)c2c(F)cccc2F)CC1)C(=O)Nc1ccc(Cl)cc1 | 3.99
COc1cccc(-c2nc(CS(=O)(=O)CC(=O)N3CCOCC3)c(C)o2)c1 | 8.98
CSc1ccc(-c2nc(CSCC(=O)N3CCOCC3)c(C)o2)cc1 | -8.01
COc1ccc(C(=O)/C=C/N2CCCCC2)cc1OC | 12.1
Cc1cccn2c(=O)c3cc(C(=O)N(C)C)n(C)c3nc12 | 10.8
Nc1nc(NCc2ccccc2Cl)n(-c2ccccc2)n1 | 18.7
O=C(Nc1ccccc1)Nc1ccc(C(F)(F)F)cn1 | 2.25
O=C(Nc1ccccc1Oc1cccnc1)C1CCCN(Cc2ccccc2O)C1 (stereo not drawn) | 3.3
COc1ccc2cc(C(=O)C3CCCN(C(=O)c4cc(=O)n(C)c(=O)n4C)C3)ccc2c1 (stereo not drawn) | 3.22
O=C(NCCn1c(C(F)(F)F)nc2ccccc21)[C@H]1CCCN1c1nc(CN2CCCCC2)cs1 | 9.26
CCOC(=O)N1CCN(c2c(NCCc3ccccc3)c(=O)c2=O)CC1 | 6.45
O=C(Nn1cnc2ccccc2c1=O)c1ccccc1 | 13.7
Cc1cc(NC(=O)C(C)SCC(=O)OCC(=O)N(Cc2ccccc2)C(C)(C)C)no1 (stereo not drawn) | 1.19
Nc1cccc(-c2nc3ccc(C(=O)c4ccccc4)cc3[nH]2)c1 | 13.2
O=C(Nc1cc(S(=O)(=O)N2CCOCC2)ccc1Cl)C(=O)c1c(-c2ccccc2)cc2ccccn12 | -0.95
CCC1CCCCN1CCCNC(=O)C1CC(=O)N(CCc2ccccc2)C1 (stereo not drawn) | 13.6
O=C(NCc1ccccc1)C(c1ccco1)N(C(=O)c1csnn1)C1CC1 (stereo not drawn) | 11.6
CC1CCN(c2nc3ccccn3c(=O)c2C=O)CC1 | 9.92
Cc1cc(C(=O)COC(=O)C2=NN(c3ccccc3)C(=O)CC2)c(C)n1CC(F)(F)F | 4.15
O=C1/C(=N\O)Cc2ccccc21 | 8.62
C=CCNC(=O)C(=O)N/N=C/c1cccc(Br)c1 | 9.95

SMILES | hERG current change (%, negative = inhibition) at 1uM [%]
O=C(Oc1cccc(C(=S)N2CCOCC2)c1)c1cc([N+](=O)[O-])cc([N+](=O)[O-])c1 | 6.81
Cc1ccc(C(=O)N2CCC(C(=O)c3ccc(Cl)cc3)CC2)cc1 | -11.3
CC1(C)CC(=O)C(N=Nc2ccc(S(=O)(=O)N3CCOCC3)cc2)=C(O)C1 | 23.9
O=C(COc1ccc(Cl)cc1Cl)N/N=C/c1cccnc1 | 7.96
NC(=O)c1nsc(C(=O)N(Cc2cccnc2)C(C(=O)NC2CCCC2)c2ccc(F)cc2)c1N (stereo not drawn) | 14.6
CS(=O)(=O)N(CC(N)=O)c1ccc(F)c(Cl)c1 | 6.29
O=C(CSc1ncccc1C(=O)O)Nc1ccc2c(c1)OCCO2 | 3.9
COc1cccc(OCCSc2nc(C)c(Cc3ccccc3)c(=O)[nH]2)c1 | 16.1
Cc1cccc(NS(=O)(=O)c2nnc(NC(=O)CC(C)C)s2)c1 | 13.5
O=c1cc(N2CCCCC2)c(-c2ccccc2)nn1Cc1ccccc1Cl | 1.54
CC1(C)CC2(CCO1)C(Nc1ccccc1)=NC(=S)N2c1ccccc1 (stereo not drawn) | 10.4
CCCn1nc(NC(=O)c2ccco2)c2cc3ccccc3nc21 | -10.1
O=c1[nH]c2ccccc2o1 | 17
COCC(=O)N(C)c1nnc(-c2cnc(C)cn2)s1 | 10.3
CCCCNC(=S)N(CCN(CC)CC)Cc1cc2cc3c(cc2[nH]c1=O)OCO3 | -1
Cc1cc(C)c(C)c(S(=O)(=O)N2CCN(C)CC2)c1C | 10
CCC(=O)C(C#N)(c1ccc(OC)c(OC)c1)C(C)C (stereo not drawn) | 4.06
COc1ccc(N(CC(=O)N/N=C/c2cc(OC)ccc2OC)S(=O)(=O)c2ccccc2)cc1 | 10.4
CNC(=O)c1ccccc1Sc1cccc2cccc(C(=O)O)c12 | 9.98
COc1ccc(NC(=O)CCN2CCCC(C)C2)cc1 (stereo not drawn) | -5.26
O=C1CC(c2ccc(F)cc2)Cc2nc(N3CCOCC3)ncc21 (stereo not drawn) | 6.83
Cc1cnn(CCC(=O)NNC(=S)Nc2ccc(F)cc2)c1 | 9.51
CC(C)N(CCNC(=O)C1CCC(=O)N1Cc1ccc(F)cc1)Cc1ccccc1 (stereo not drawn) | 0.186

SMILES | hERG current change (%, negative = inhibition) at 1uM [%]
Cc1cccc(NC(=O)CSCC(=O)Nc2ccccc2C(=O)NC2CC2)c1 | 14.1
CNc1oc(-c2ccc(F)cc2)nc1S(=O)(=O)c1ccccc1 | 6.56
CCCCNc1nnc(SCC(=O)c2c[nH]c3ccccc23)s1 | 6.24
CC(=O)c1ccc(OCC(=O)NC2CCCCCC2)cc1 | 10.9
Cc1cccc(-n2ncc3c2CCCC3NC(=O)C2=CC(=O)CC(C)(C)O2)c1C (stereo not drawn) | 6.55
Cc1ccc(/C(C#N)=C\c2ccc(N3CCOCC3)o2)cc1 | 1.96
CCN(CC)CCNC(=O)/C(=C/c1cn(CC)c2ccccc12)NC(=O)c1cc(OC)c(OC)c(OC)c1 | 8.66
CC(=O)Nc1ccc(S(=O)(=O)NNC(=O)c2sc(=S)n(C)c2C)cc1 | 3.98
COc1ccccc1S(=O)Cc1ccc(C(=O)NCc2ccccc2Cl)o1 (stereo not drawn) | -2.12
O=C(CS(=O)(=O)c1ccccc1)Nc1cccnc1 | 11.4
CCCC(=O)Nc1nnc(SCC(=O)NCc2ccc3c(c2)OCO3)s1 | 16.7
COc1ccccc1CN(C)CC(=O)NC1CCCc2ccccc21 (stereo not drawn) | 5
COc1ccc(C(CC(=O)O)NC(=O)C(c2ccccc2)c2ccccc2)cc1 (stereo not drawn) | 9.89
COc1ccc(S(=O)(=O)N2CCCC2CNC(=O)C(=O)NCc2ccccc2)cc1 (stereo not drawn) | 3.48
COCCCNC(=O)[C@H]1N2C(=O)c3ccccc3C2SC1(C)C (stereo partly drawn) | 6.69
O=C(CCN1C(=O)c2cccc3cccc(c23)C1=O)NCC1CCCO1 (stereo not drawn) | 13.6
C/C(Cc1ccccc1)=N/NC(=O)CNC(=O)C(c1ccccc1)c1ccccc1 | 3.64
CCOC(=O)N1CCN(Cc2nc(N)nc(Nc3ccc(C)cc3)n2)CC1 | -37
CCOc1ccc(C(=O)C2CCN(C(=O)c3ccccc3C(=O)O)CC2)cc1 | -5.09
COc1cccc(/C=N/NC(=O)c2ccccc2NC(=O)c2ccco2)c1OC | 13.4
CCOCCCNC(=O)c1ccc(Br)cc1 | 18.1
